{
  "source": "patent US20150284450A1",
  "about": "“COMBINATION THERAPIES USING ANTI-PSEUDOMONAS PSL AND PCRV BINDING MOLECULES” (priority 2012, published 2015)",
  "key": {"[1]": {"tested_on": "P. aeruginosa PAO1.lux attachment to A549 cells", "assay": "Cell attachment assay, PAO1.lux on A549 cells", "assay_type": "cell-based, Pseudomonas aeruginosa", "settings": "FIG. 27B", "protocol": "Anti-Psl antibodies were added to a confluent monolayer of A549 cells (an adenocarcinoma human alveolar basal epithelial cell line) grown in opaque 96-well plates (Nunc Nunclon Delta). Log-phase luminescent P. aeruginosa PAO1 strain (PAO1.lux) was added at an MOI of 10. After incubation of PAO1.lux with A549 cells at 37° C. for 1 hour, the A549 cells were washed, followed by addition of LB+0.5% glucose. Bacteria were quantified following a brief incubation at 37° C. as performed in the OPK assay described in Example 2. Measurements from wells without A549 cells were used to correct for non-specific binding."}, "[2]": {"tested_on": "P. aeruginosa serogroup 05 strain (PAO1.lux)", "assay": "Opsonophagocytic killing (OPK) assay with luminescent PAO1.lux, HL-60 cells and baby rabbit serum", "assay_type": "cell-based, Pseudomonas aeruginosa", "settings": "FIG. 27A", "protocol": "This example describes the evaluation of prioritized human IgG1 antibodies to promote OPK of P. aeruginosa. […] OPK assays were performed as described in (DiGiandomenico, A., et al., Infect Immun 72, 7012-7021 (2004)), with modifications. Briefly, assays were performed in 96-well plates using 0.025 ml of each OPK component; P. aeruginosa strains; diluted baby rabbit serum; differentiated HL-60 cells; and monoclonal antibody. In some OPK assays, luminescent P. aeruginosa strains, which were constructed as described (Choi, K. H., et al., Nat Methods 2, 443-448 (2005))., were used. Luminescent OPK assays were performed as described above but with determination of relative luciferase units (RLUs) using a Perkin Elmer ENVISION Multilabel plate reader (Perkin Elmer)."}, "[3]": {"tested_on": "P. aeruginosa 6206", "assay": "Inhibition of RBC lysis with strain 6206", "assay_type": "cell-based, Pseudomonas aeruginosa", "settings": "FIG. 19C", "protocol": "(§1) Percent inhibition of cytotoxicity analysis was analysed for the parental V2L2 mAb, mAb166 (positive control) and R347 (negative control), where the antibodies were administered to cultured broncho-epithelial cell line A549 combined with log-phase P. aeruginosa strain 6077 (exoU+) at a MOI of approximately 10. A549 lysis was assayed by measuring released lactate dehydrogenase (LDH) activity and lysis in the presence of mAbs was compared to wells without mAb to determine percent inhibition. The V2L2 mAb, mAb166 (positive control) and R347 (negative control) were evaluated for their ability to prevent lysis of RBCs, where the antibodies were mixed with log-phase P. aeruginosa 6077 (exoU^+) and washed rabbit red blood cells (RBCs) and incubated for 2 hours at 37°. Intact RBCs were pelleted and the extent of lysis determined by measuring the OD405 of the cell-free supernatant. Lysis in the presence of anti-PcrV mAbs was compared to wells without mAb to determine percent inhibition.\nAs shown in FIG. 19 (A-C), percent inhibition of cytotoxicity was analyzed for both Bs2-V2L2 and Bs3-V2L2 using both (A) 6206 and (B) 6206ΔpslA infected cells, and (C) percent inhibition of RBC lysis was analyzed for Bs2-V2L2-2C, Bs3-V2L2-2C and Bs4-V2L2-2C using 6206 infected cells."}, "[4]": {"tested_on": "P. aeruginosa 6206 (O11-ExoU+)", "assay": "Acute pneumonia model in mice, strain 6206", "assay_type": "in vivo, Pseudomonas aeruginosa", "protocol": "Antibodies or PBS were administered 24 hours before infection in each model. P. aeruginosa acute pneumonia, keratitis, and thermal injury infection models were performed as described (DiGiandomenico, A., et al., Proc Natl Acad Sci USA 104, 4624-4629 (2007)), with modifications. In the acute pneumonia model, BALB/c mice (The Jackson Laboratory) were infected with P. aeruginosa strains suspended in a 0.05 ml inoculum. In the thermal injury model, CF-1 mice (Charles River) received a 10% total body surface area burn with a metal brand heated to 92° C. for 10 seconds. Animals were infected subcutaneously with P. aeruginosa strain 6077 at the indicated dose. For organ burden experiments, acute pneumonia was induced in mice followed by harvesting of lungs, spleens, and kidneys 24 hours post-infection for determination of CFU."}, "[5]": {"tested_on": "P. aeruginosa 6077 (exoU+)", "assay": "Rabbit red blood cell lysis inhibition assay with strain 6077", "assay_type": "cell-based, Pseudomonas aeruginosa", "settings": "FIG. 27C", "protocol": "as §1"}, "[6]": {"settings": "9.5×10^5 CFU 6206, 15.0, 5.0 and 1.0 mg/kg prophylaxis, FIG. 25D"}},
  "data": [
    {"molecule": "Bs4-V2L2-2C: W4-RAD scFv inserted in hinge region of V2L2 IgG; light and heavy chain SEQ ID NOS: 327 and 328 (protein, Bs4-V2L2-C2 VL) light: AIQMTQSPSSLSASVGDRVTITCRASQGIRNDLGWYQQKPGKAPKLVIYSASTLQSGVPSRFSGSGSGTDFTLSISSLQPDDFATYYCLQDYNYPWTFGQGTKVEIKRTVAAPSVFIFPPSDEQLKSGTASVVCLLNNFYPREAKVQWKVDNALQSGNSQESVTEQDSKDSTYSLSSTLTLSKADYEKHKVYACEVTHQGLSSPVTKSFNRGEC heavy: EMQLLESGGGLVQPGGSLRLSCAASGFTFSSYAMNWVRQAPGEGLEWVSAITISGITAYYTDSVKGRFTISRDNSKNTLYLQMNSLRAGDTAVYYCAKEEFLPGTHYYYGMDVWGQGTTVTVSSASTKGPSVFPLAPSSKSTSGGTAALGCLVKDYFPEPVTVSWNSGALTSGVHTFPAVLQSSGLYSLSSVVTVPSSSLGTQTYICNVNHKPSNTKVDKRVEPKSCGGGGSGGGGSEVQLLESGPGLVKPSETLSLTCNVAGGSISPYYWTWIRQPPGKCLELIGYIHSSGYTDYNPSLKSRVTISGDTSKKQFSLHVSSVTAADTAVYFCARADWDLLHALDIWGQGTLVTVSSGGGGSGGGGSGGGGSGGGGSEIVLTQSPSSLSTSVGDRVTITCRASQSIRSHLNWYQQKPGKAPKLLIYGASNLQSGVPSRFSGSGSGTDFTLTISSLQPEDFATYYCQQSYSFPLTFGCGTKLEIKGGGGSGGGGS[letters of human IgG1 Fc not shown]", "values": [
      {"measurement": "difference in functional activity between Bs4-WT, Bs4-GL and Bs4-GLO, anti-cell attachment assay", "setting": "[1]", "value": "No in vitro difference in functional activities"},
      {"measurement": "difference in functional activity between Bs4-WT, Bs4-GL and Bs4-GLO, OPK assay", "setting": "[2]", "value": "No in vitro difference in functional activities"},
      {"measurement": "inhibition of RBC lysis compared to parental V2L2", "setting": "[3]", "value": "inhibited RBC lysis at levels similar to the parental V2L2 antibody"},
      {"measurement": "bacterial burden in the lung", "setting": "[4]; [6]", "value": "rapid and efficient bacterial clearance was observed from the lung"},
      {"measurement": "bacterial dissemination to the spleen and kidneys", "setting": "[4]; [6]", "value": "bacterial dissemination to the spleen and kidneys were also ablated"},
      {"measurement": "protection against lethal pneumonia, ranking", "setting": "[4]; 6206 (ExoU+), 0.1-15 mg/kg, FIG. 21I", "value": "most effective in protection against lethal pneumonia"},
      {"measurement": "survival activity in comparison to Bs3-V2L2", "setting": "[4]; 6206, 0.5 mg/kg, FIG. 21D", "value": "greater activity in comparison to Bs3-V2L2"},
      {"measurement": "survival activity in comparison to Bs2-V2L2 (results not statistically significant)", "setting": "[4]; 6206, 1.0 mg/kg, FIG. 21C", "value": "appeared to have greater activity in comparison to Bs2-V2L2"},
      {"measurement": "survival activity in comparison to the W4 + V2L2 antibody mixture", "setting": "[4]; 6206, Bs4 2 and 1 mg/kg vs. mixture 1.0 and 0.5 mg/kg each, FIG. 21E", "value": "greater activity in comparison to the antibody mixture"},
      {"measurement": "survival activity in comparison to Bs2-V2L2", "setting": "[4]; 6206, both 1.0 and 0.5 mg/kg, FIG. 21B", "value": "greater activity in comparison to Bs2-V2L2"},
      {"measurement": "difference in functional activity between Bs4-WT, Bs4-GL and Bs4-GLO, RBC lysis anti-cytotoxicity assay", "setting": "[5]", "value": "No in vitro difference in functional activities"}
    ]}
  ]
}
